# From the supplement of paper PMC8728848
# Some of the results follow.
# B1: PX9961U-pdi-543-24-543 (Parabacteroides distasonis) (protein)
# chain: EEPVGEFLPGQVESEENIEGIVTGAYAVLDGYYASDAINSGCSNWQFGDVVSDDAYKGGGGTGDQNQIHLMEIFNANPTGIDFEARWAALYEGIKRCNQAIRLLNGSEVKNKEQRLAEMRFLRGHYYFNLKIIYNQIPWIDETLVDPNEYNKKSNIEFSSDQLWEKILEEFSAAYKVLPESQADYGRPTKMAARAYMAKVYLYQSKWKECLEACDEVIQSGKYELFPDFRNVFLPENDNCSEIIFAIQLSINDGSPNNENGSYGDRLLPPGGPYPVYGFLRPTQNLVNAYKTDVKGLPYNDGKDVSENDYVDVRLDHTLARPNIPFMDVQLYDWTPREASVYGPYSPKKRLVSLNSTYYSPIWPYVNALNFYVIRYADLLLWRAEAAIETGDLETGRKYINMIRERAKNTQHVKTMDQSQDAANYKVGVYDEPFKSKNEAVQALRMERRLEMAHEGIRFFDLVRWGVADEVINAYIAKEKVFRSHLQNAHFVKGKHEYFPIPQSMIDICGTEVMKQNPGY
# Legend:
# Assay in all cases: glycan array binding signal (z-score within array); higher = stronger binding
# Conditions in all cases: glycan notation: IUPAC condensed, linker removed
# Fuc(a1-3)GlcNAc = target: Fuc(a1-3)GlcNAc
# Method in brief: (§1)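 From the Consortium for Functional Glycomics database, 3228 arrays were curated, keeping only those whose protein sequence was available. Binding is given as a within-array Z-score averaged across arrays sharing a protein sequence and across linkers. Negative Z-scores can be read as non-binding.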
# [1] = target: Fuc(a1-3)[Gal(b1-4)]Glc6S
# Method in brief: as §1
# [2] = target: Fuc(a1-3)[Gal(b1-4)]GlcNAc
# Method in brief: as §1
# [3] = target: Fuc(a1-3)[Gal(b1-4)]GlcNAc(b1-2)Man
# Method in brief: as §1
# [4] = target: Fuc(a1-3)[Gal(b1-4)]GlcNAc(b1-2)Man(a1-3)[Fuc(a1-3)[Gal(b1-4)]GlcNAc(b1-2)Man(a1-6)]Man(b1-4)GlcNAc(b1-4)GlcNAc
# Method in brief: as §1
# [5] = target: Fuc(a1-3)[Gal(b1-4)]GlcNAc(b1-2)Man(a1-3)[Fuc(a1-3)[Gal(b1-4)]GlcNAc(b1-2)Man(a1-6)]Man(b1-4)GlcNAc(b1-4)[Fuc(a1-6)]GlcNAc
# Method in brief: as §1
# [6] = target: Fuc(a1-3)[Gal(b1-4)]GlcNAc(b1-3)Gal(b1-3)[Fuc(a1-4)]GlcNAc
# Method in brief: as §1
# [7] = target: Fuc(a1-3)[Gal(b1-4)]GlcNAc(b1-3)Gal(b1-4)[Fuc(a1-3)]GlcNAc
# Method in brief: as §1
# [8] = target: Fuc(a1-3)[Gal(b1-4)]GlcNAc(b1-3)Gal(b1-4)[Fuc(a1-3)]GlcNAc(b1-3)Gal(b1-4)[Fuc(a1-3)]GlcNAc
# Method in brief: as §1
# [9] = target: Fuc(a1-3)[Gal(b1-4)]GlcNAc(b1-3)GalNAc
# Method in brief: as §1
# [10] = target: Fuc(a1-3)[Gal(b1-4)]GlcNAc(b1-6)GalNAc
# Method in brief: as §1
# [11] = target: Fuc(a1-3)[Gal(b1-4)]GlcNAc(b1-6)[Gal(b1-3)GlcNAc(b1-3)]Gal(b1-4)Glc
# Method in brief: as §1
# [12] = target: Fuc(a1-3)[Gal(b1-4)]GlcNAc6S
# Method in brief: as §1
# [13] = target: Fuc(a1-3)[Gal3S(b1-4)]Glc
# Method in brief: as §1
# [14] = target: Fuc(a1-3)[Gal3S(b1-4)]GlcNAc
# Method in brief: as §1
# [15] = target: Fuc(a1-3)[Gal3S(b1-4)]GlcNAc6S
# Method in brief: as §1
# [16] = target: Fuc(a1-3)[GalNAc(b1-4)]GlcNAc
# Method in brief: as §1
# [17] = target: Fuc(a1-3)[GalNAc(b1-4)]GlcNAc6S
# Method in brief: as §1
# Fuc(a1-4)GlcNAc = target: Fuc(a1-4)GlcNAc
# Method in brief: as §1
# Fuc(b1-3)GlcNAc = target: Fuc(b1-3)GlcNAc
# Method in brief: as §1
# Gal(a1-2)Gal = target: Gal(a1-2)Gal
# Method in brief: as §1
# Gal(a1-3)Gal = target: Gal(a1-3)Gal
# Method in brief: as §1
# Gal(a1-3)Gal(b1-3)GlcNAc = target: Gal(a1-3)Gal(b1-3)GlcNAc
# Method in brief: as §1
# [18] = target: Gal(a1-3)Gal(b1-3)GlcNAc(b1-2)Man
# Method in brief: as §1
# [19] = target: Gal(a1-3)Gal(b1-3)GlcNAc(b1-2)Man(a1-3)[Gal(a1-3)Gal(b1-3)GlcNAc(b1-2)Man(a1-6)]Man(b1-4)GlcNAc(b1-4)GlcNAc
# Method in brief: as §1
# [20] = target: Gal(a1-3)Gal(b1-3)GlcNAc(b1-3)GalNAc
# Method in brief: as §1
# [21] = target: Gal(a1-3)Gal(b1-3)GlcNAc(b1-6)GalNAc
# Method in brief: as §1
# [22] = target: Gal(a1-3)Gal(b1-3)[Fuc(a1-4)]GlcNAc(b1-2)Man(a1-3)[Gal(a1-3)Gal(b1-3)[Fuc(a1-4)]GlcNAc(b1-2)Man(a1-6)]Man(b1-4)GlcNAc(b1-4)GlcNAc
# Method in brief: as §1
# Gal(a1-3)Gal(b1-4)Glc = target: Gal(a1-3)Gal(b1-4)Glc
# Method in brief: as §1
# Gal(a1-3)Gal(b1-4)GlcNAc = target: Gal(a1-3)Gal(b1-4)GlcNAc
# Method in brief: as §1
binder,measurement,setting,value
B1,glycan array binding signal (z-score),Fuc(a1-3)GlcNAc,-0.428
same,glycan array binding signal (z-score),[1],-0.319
same,glycan array binding signal (z-score),[2],-0.33
same,glycan array binding signal (z-score),[3],-0.413
same,glycan array binding signal (z-score),[4],0.28
same,glycan array binding signal (z-score),[5],1.15
same,glycan array binding signal (z-score),[6],-0.382
same,glycan array binding signal (z-score),[7],-0.37
same,glycan array binding signal (z-score),[8],-0.416
same,glycan array binding signal (z-score),[9],0.514
same,glycan array binding signal (z-score),[10],0.082
same,glycan array binding signal (z-score),[11],-0.327
same,glycan array binding signal (z-score),[12],0.485
same,glycan array binding signal (z-score),[13],-0.401
same,glycan array binding signal (z-score),[14],-0.394
same,glycan array binding signal (z-score),[15],-0.362
same,glycan array binding signal (z-score),[16],-0.446
same,glycan array binding signal (z-score),[17],-0.338
same,glycan array binding signal (z-score),Fuc(a1-4)GlcNAc,-0.433
same,glycan array binding signal (z-score),Fuc(b1-3)GlcNAc,-0.456
same,glycan array binding signal (z-score),Gal(a1-2)Gal,-0.353
same,glycan array binding signal (z-score),Gal(a1-3)Gal,2.49
same,glycan array binding signal (z-score),Gal(a1-3)Gal(b1-3)GlcNAc,0.001
same,glycan array binding signal (z-score),[18],0.079
same,glycan array binding signal (z-score),[19],1.15
same,glycan array binding signal (z-score),[20],-0.232
same,glycan array binding signal (z-score),[21],-0.308
same,glycan array binding signal (z-score),[22],4.38
same,glycan array binding signal (z-score),Gal(a1-3)Gal(b1-4)Glc,-0.175
same,glycan array binding signal (z-score),Gal(a1-3)Gal(b1-4)GlcNAc,-0.225
